Where “and” joins values, the source holds several entries; their conditions need not be identical. Equal values may be shown once. Whole data set: some 5,300 compounds, median “PER2::LUC luminescence relative to vehicle control” near 0.96, cut for the highest 2% near 1.3. This is one part of the list.
Tested on: mPer2Luc MEF
Experiment: PER2::LUC luminescence relative to vehicle control (fold of vehicle); higher = higher PER2::LUC reporter signal
Conditions: 10 µM
How it was run: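 The value is PER2::LUC luminescence expressed as fold of vehicle control. Mouse embryonic fibroblasts carrying the mPer2Luc reporter were seeded at ~3000 cells per well in 384-well plates and grown in DMEM with 10% FBS at 37 °C and 5% CO2. Compounds from commercial libraries were added at 10 μM 48 h after seeding, and luminescence was read with the ONE-Glo luciferase assay system 24 h and 30 h after treatment, followed by an alamarBlue viability assay.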

| SMILES | PER2::LUC luminescence (time after treatment 24 h) | PER2::LUC luminescence (time after treatment 30 h) |
| --- | --- | --- |
| NC(C(=O)O)C(O)C(=O)O (racemic) | 1.26 | 1.25 |
| CCn1c(=O)c2c(nc(/C=C/c3ccc(OC)c(OC)c3)n2C)n(CC)c1=O | 0.779 | 0.855 |
| CCCn1c(=O)c(C)cn2nc(N)nc12 | 0.976 | 0.938 |
| C/C=C\c1ccc(OC)cc1 | 1 | 1.03 |
| Cc1ccc(OCC(O)C(C)NC(C)C)c2c1CCC2 (stereo not given) | 0.839 | 0.772 |
| COc1cc(O)c2c(=O)c(OC)c(-c3ccc(OC)c(OC)c3)oc2c1 | 0.869 | 0.928 |
| CN1C(=O)N[C@H](Cc2c[nH]c3c(Cl)cccc23)C1=O | 0.87 | 0.819 |
| O=c1ccn([C@@H]2O[C@H](COP(=O)(O)OP(=O)(O)O)[C@@H](O)[C@H]2O)c(=O)[nH]1 | 0.987 | 1.03 |
| CC(C(O)c1ccc(O)cc1)N1CCC(Cc2ccccc2)CC1 (stereo not given) | 0.965 and 0.712 | 0.891 and 0.718 |
| C[C@@H]1C/C=C/C=C/C=C/C=C/[C@H](O[C@@H]2O[C@H](C)[C@@H](O)[C@H](N)[C@@H]2O)C[C@@H]2O[C@](O)(C[C@@H](O)C[C@H]3O[C@@H]3/C=C/C(=O)O1)C[C@H](O)[C@H]2C(=O)O | 0.92 and 0.933 | 1.09 and 0.88 |
| O=C(O)c1ccc[n+]([O-])c1 | 1.15 | 0.892 |
| Cc1c(N)c(=O)n(-c2ccccc2)n1C | 0.986 | 0.995 |
| O=C(/C=C/c1cccc(S(=O)(=O)Nc2ccccc2)c1)NO | 0.425 | 0.4 |
| NC[C@H]1O[C@H](O[C@H]2[C@H](O)[C@@H](O[C@H]3O[C@H](CO)[C@@H](O)[C@H](N)[C@H]3O)[C@H](N)C[C@@H]2N)[C@H](N)C[C@@H]1O | 1.25 | 1.2 |
| CSC[C@H]1O[C@@H](n2cnc3c(N)ncnc32)[C@H](O)[C@@H]1O | 0.938 | 0.773 |
| COc1ccc2c(c1)c(CC(=O)O)c(C)n2C(=O)c1ccccc1 | 0.994 | 1.01 |
| NC1(C(=O)O)C[C@@H](C(=O)O)[C@H](C(=O)O)C1 (racemic) | 0.98 | 0.892 |
| OCC1OC(O)CC(O)C1O (stereo not given) | 1.15 | 0.973 |
| Nc1nc2c(cnn2CCc2ccccc2)c2nc(-c3ccco3)nn12 | 0.814 | 0.977 |
| CCOC(=O)Nc1nc2ccccc2[nH]1 | 1.08 | 1.03 |
| C=C/C(C)=C/[C@@]1(C)SC(=O)C(C)=C1O | 0.948 | 1.05 |
| CC(C)(C)c1cc(NC(=O)Nc2ccc(-c3cn4c(n3)sc3cc(OCCN5CCOCC5)ccc34)cc2)no1 | 0.386 | 0.496 |
| COc1ccc(-c2oc3cc(OC)c(OC)c(OC)c3c(=O)c2OC)cc1OC | 0.719 | 0.72 |

| SMILES | PER2::LUC luminescence (time after treatment 24 h) | PER2::LUC luminescence (time after treatment 30 h) |
| --- | --- | --- |
| O=C(CCBr)N1CCN(C(=O)CCBr)CC1 | 1.03 | 0.664 |
| CNC(=O)c1ccc(N2C(=S)N(c3ccc(C#N)c(C(F)(F)F)c3)C(=O)C2(C)C)cc1F | 1.11 and 1.09 | 1.01 and 0.99 |
| CCCCC1C(=O)N(c2ccccc2)N(c2ccc(O)cc2)C1=O (stereo not given) | 0.817 | 0.755 |
| N[C@H]1CONC1=O | 1.01 and 1.09 | 0.967 and 1.11 |
| COc1cc(OC)c(NC(=O)Nc2cc(C)on2)cc1Cl | 1.02 | 1.06 |
| COc1cc(OC)c2ccc(=O)oc2c1 | 0.858 | 0.875 |
| O[C@H]([C@H](O)[C@@H]1CO1)[C@H]1CO1 | 1.11 | 0.895 |
| CCN(CC)C(=O)Nc1ccc(OCC(O)CNC(C)(C)C)c(C(C)=O)c1 (stereo not given) | 1.19 | 1.1 |
| Cc1cc(NC(=O)NCCN2CCC(O)(Cc3ccccc3)CC2)c2ccccc2n1 | 0.918 | 0.865 |
| Cc1cc(O)c2c(c1O)C(=O)c1c(O)cc(C)c(O)c1C2=O | 1 | 1 |
| COC(=O)C1=CO[C@@H](O[C@@H]2O[C@H](CO)[C@@H](O)[C@H](O)[C@H]2O)[C@H]2[C@@H]1C(=O)C[C@@H]2C | 0.968 | 0.979 |
| COC(=O)C[C@H]1C2(C)CC34OC5(C)O[C@@]6([C@H](OC(C)=O)C(OC(C)=O)[C@]7(C)C(/C(=C(/O)C(C)C)C(=O)O[C@H]7c7ccoc7)[C@@]6(O5)[C@H](OC(C)=O)[C@@]3(O)C2OC(=O)C(C)C)[C@]14C (stereo not given in full) | 0.773 | 0.768 |
| COc1cc2nc(N3CCN(C(=O)C4COc5ccccc5O4)CC3)nc(N)c2cc1OC (stereo not given) | 0.798 | 0.903 |
| CC(=O)Nc1ccc(OC(=O)c2ccccc2O)cc1 | 0.934 | 1.02 |
| O=C(O)c1cc(=O)c(O)c2c(O)c(O)c(O)cc2c1 | 0.975 | 0.906 |
| NC[C@@](O)(c1ccc(Cl)cc1)c1ccc(-c2cn[nH]c2)cc1 | 0.147 | 0.218 |
| O=c1c(O)c(-c2ccc(O)cc2)oc2cc(O)cc(O)c12 | 1.01 | 0.989 |
| O=c1nc2ccccc2c2n1CC(CN1CCN(c3ccccc3)CC1)N2 (stereo not given) | 1.04 | 1.03 |
| O=P(O)(O)C(O)(Cn1ccnc1)P(=O)(O)O | 0.964 | 0.93 |
| O=C(c1cc(O)c(O)c([N+](=O)[O-])c1)c1ccccc1F | 0.942 | 1.01 |
| CCOC(=O)c1ccc(N(C)c2csc(-c3ccccc3)n2)cc1 | 1.19 | 1.58 |
| CCN(CC)C(=O)C1(c2ccccc2)CC1CN (stereo not given) | 1 and 0.523 | 0.945 and 0.937 |
| Cc1cc(C(C)(C)C)cc(C)c1CC1=NCCN1 | 0.495 | 0.853 |

| SMILES | PER2::LUC luminescence (time after treatment 24 h) | PER2::LUC luminescence (time after treatment 30 h) |
| --- | --- | --- |
| CC1(C)CC(NC(=O)C(=O)Nc2ccc(Cl)cc2)CC(C)(C)N1 | 0.958 | 1 |
| COc1cc(NC(=O)c2ccccn2)ccc1Cl | 1.13 | 1.38 |
| CCN(CCCCOC(=O)c1ccc(OC)c(OC)c1)C(C)Cc1ccc(OC)cc1 (stereo not given) | 0.846 | 0.725 |
| O=c1[nH]ccc2c(O)cccc12 | 1.22 | 0.806 |
| CC(C)(CO)[C@@H](O)C(=O)NCCC(=O)O | 1.09 | 1.04 |
| C[C@@H]1C[C@H]2[C@@H]3CCC4=CC(=O)C=C[C@]4(C)[C@@]3(F)[C@@H](O)C[C@]2(C)[C@H]1C(=O)CO | 0.732 | 0.866 |
| CCN(CC)CCOCCOC(=O)C1(c2ccccc2)CCCC1 | 0.976 | 0.912 |
| CC#CCn1c(N2CCC[C@@H](N)C2)nc2c1c(=O)n(Cc1nc(C)c3ccccc3n1)c(=O)n2C | 0.899 | 0.982 |
| COc1ccc2c3n(c(=NC(=O)c4cccnc4)nc2c1OC)CCN3 | 0.418 | 0.369 |
| O=C(O)c1cccc(CN2C(=O)/C(=C(\c3ccccc3)c3ccc(Cl)cc3)c3ccccc32)c1 | 1.09 | 1.03 |
| CCCc1nc2c(C)cc(-c3nc4ccccc4n3C)cc2n1Cc1ccc(-c2ccccc2C(=O)O)cc1 | 0.693 | 0.744 |
| O=C(O)Cc1ccc(O)c(O)c1 | 0.817 | 1.03 |
| COCCCOc1cc(C[C@@H](C[C@H](N)[C@@H](O)C[C@H](C(=O)NCC(C)(C)C(N)=O)C(C)C)C(C)C)ccc1OC | 0.442 | 0.84 |
| CNCCCCOc1ccccc1Cc1ccccc1 | 0.867 | 0.73 |
| CCCCOC(=O)c1ccc(O)cc1 | 1.63 and 1.43 | 1.61 and 1.57 |
| C#C[C@]1(OC(C)=O)CC[C@H]2[C@@H]3CCC4=CC(=O)CC[C@@H]4[C@H]3CC[C@@]21C | 0.907 | 0.944 |
| COc1ccc(-c2cc(=O)c3c(O)c(OC)c(OC)c(OC)c3o2)cc1OC | 0.819 | 0.797 |
| Cc1ccc(C(=O)N(CCCN)[C@@H](c2nc3cc(Cl)ccc3c(=O)n2Cc2ccccc2)C(C)C)cc1 | 0.335 and 0.314 | 0.364 and 0.282 |
| N=C(N)N1CCc2ccccc2C1 | 1.08 | 0.988 |
| CC1=CC(=O)c2ccccc2C1=O | 0.918 | 1.09 |
| CC(=O)/N=c1/sc(S(N)(=O)=O)nn1C | 0.914 | 1.21 |
| COc1cc2ncnc(Nc3ccc(F)c(Cl)c3)c2cc1NC(=O)/C=C/CN1CCCCC1 | 0.308 | 0.05 |
| N=C(N)SCCN | 1.05 | 1.05 |

| SMILES | PER2::LUC luminescence (time after treatment 24 h) | PER2::LUC luminescence (time after treatment 30 h) |
| --- | --- | --- |
| CC(=O)Oc1cc(C)c(OC(C)=O)c2ccccc12 | 1.01 | 1.02 |
| O=C(O)/C=C/C=C/c1ccccc1 | 1.05 | 1.03 |
| CCCCC1C(=O)N(c2ccccc2)N(c2ccccc2)C1=O | 1.08 | 0.813 |
| CNCC[C@@H](Oc1ccccc1C)c1ccccc1 | 0.978 and 0.681 | 1.05 and 0.979 |
| c1ccc(CN2CCC3(CCCc4ccccc43)CC2)cc1 | 1.05 | 0.855 |
| CC(C)(O)CNc1nc(Nc2ccnc(C(F)(F)F)c2)nc(-c2cccc(C(F)(F)F)n2)n1 | 0.819 | 0.875 |
| CSc1nc(N)c2ncn([C@@H]3O[C@H](COP(=O)(O)OP(=O)(O)O)[C@H](O)C3O)c2n1 (stereo not given in full) | 0.758 | 1.22 |
| Cc1ccc(C(=O)C(C)CN2CCCCC2)cc1 (stereo not given) | 0.866 | 0.885 |
| Nc1c(S(=O)(=O)O)cc(Nc2ccc(Nc3nc(Cl)nc(Nc4cccc(S(=O)(=O)O)c4)n3)c(S(=O)(=O)O)c2)c2c1C(=O)c1ccccc1C2=O | 1.15 | 0.99 |
| NS(=O)(=O)C#Cc1ccccc1 | 1.18 | 0.903 |
| O=C(CCCCC(=O)Nc1c(I)cc(I)c(C(=O)O)c1I)Nc1c(I)cc(I)c(C(=O)O)c1I | 0.874 | 0.999 |
| OC[C@H]1O[C@@H](O[C@@H]2OC=C[C@H]3[C@H](O)[C@@H]4O[C@]4(CO)[C@@H]23)[C@H](O)[C@@H](O)[C@@H]1O | 1.04 | 1 |
| O=C(O)Cc1cc(I)c(Oc2ccc(O)c(I)c2)c(I)c1 | 0.788 | 1.04 |
| CC(C)=CCC/C(C)=C\CO | 0.977 | 0.931 |
| COCCCOc1ccnc(C[S+]([O-])c2nc3ccccc3[nH]2)c1C (stereo not given) | 1.15 and 1.39 and 1.44 | 1.12 and 1.68 and 1.47 |
| CCN(CC)CCCN(c1ccccc1)C1Cc2ccccc2C1 | 0.837 | 0.839 |
| CCC(CC)(NC(=O)C(C)C)C(=O)N[C@@H](CCCN=C(N)N)C(=O)NC1(C(=O)NC(c2ccc(F)cc2)c2ccc(F)cc2)CCCC1 | 1.04 | 0.996 |
| COc1cc(C(C)=O)cc(OC)c1O | 0.965 | 0.931 |
| COc1nc(C)cnc1NS(=O)(=O)c1cccnc1-c1ccc(-c2nnco2)cc1 | 1.11 | 0.984 |
| Cc1oc(=O)oc1CN1CCN(c2cc3c(cc2F)c(=O)c(C(=O)O)c2n3C(C)S2)CC1 (stereo not given) | 0.993 | 0.997 |
| C/C(O)=C(\C#N)C(=O)Nc1ccc(C(F)(F)F)cc1 | 1.32 and 1.08 | 1.56 and 1.07 |

From the supplement of paper PMC9334596
